Assay results as given in patent US9475779B2, “Substituted bicyclic dihydropyrimidinones and their use as inhibitors of neutrophil elastase activity” (priority 2014, dated 2016).
pIC50: −log10 of the molar value.

The compounds below were run against hERG (human ether-a-go-go-related gene) potassium channel (Homo sapiens (Human), UniProt Q12809) (assay: cell-based).

Row | Structure (SMILES) | pIC50
1 | CN1C(=O)N(c2cccc(C(F)(F)F)c2)C2=C(C(=O)CC2)C1c1ccc(C#N)cc1CO (single isomer, unassigned) [Example A.1A, 3-Hydroxymethyl-4-[3-methyl-2,5-dioxo-1-(3-trifluoromethyl-phenyl)-2,3,4,5,6,7-hexahydro-1H-cyclopentapyrimidin-4-yl]-benzonitrile] | < 4.52
2 | CN1C(=O)N(c2ccnc(C(F)(F)F)c2)C2=C(C(=O)CC2)C1c1ccc(C#N)cc1S(C)(=O)=O (single isomer, unassigned) [Example D.1A, 3-Methanesulfonyl-4-[3-methyl-2,5-dioxo-1-(2-trifluoromethyl-pyridin-4-yl)-2,3,4,5,6,7-hexahydro-1H-cyclopentapyrimidin-4-yl]-benzonitrile] | < 4.52
3 | CN1C(=O)N(c2cccc(C(F)(F)F)c2)C2=C(C(=O)CC2)[C@H]1c1ccc(C#N)cc1S(=O)(=O)CCO [Example B.1.2B] | < 4.52
